Each structure is given as a SMILES string. The full ranking holds about 110,000 compounds; the median of “z-score” is about -0.1, and the highest 2% start at about 2. Some of the results follow. The source made the active and inactive calls.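 How the source made its calls: active means z-score in the third read window above 3 or below -3; inactive means the rest.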

For the test, the target named is Metabotropic glutamate receptor 8 (Rattus norvegicus) (UniProt P70579). Nature of the test: rat mGluR8 modulators via GIRK flux, primary screen, cell-based, thallium flux, HTS (AID 488969). Conditions: HEK293 rat mGluR8, GIRK (G protein-gated inwardly rectifying potassium channel) thallium flux, FluoZin2; at 10 µM; stronger effect = higher value; submaximal glutamate (EC20) added with thallium.
UniProt P70579, sequence (P70579 whole entry, looked up): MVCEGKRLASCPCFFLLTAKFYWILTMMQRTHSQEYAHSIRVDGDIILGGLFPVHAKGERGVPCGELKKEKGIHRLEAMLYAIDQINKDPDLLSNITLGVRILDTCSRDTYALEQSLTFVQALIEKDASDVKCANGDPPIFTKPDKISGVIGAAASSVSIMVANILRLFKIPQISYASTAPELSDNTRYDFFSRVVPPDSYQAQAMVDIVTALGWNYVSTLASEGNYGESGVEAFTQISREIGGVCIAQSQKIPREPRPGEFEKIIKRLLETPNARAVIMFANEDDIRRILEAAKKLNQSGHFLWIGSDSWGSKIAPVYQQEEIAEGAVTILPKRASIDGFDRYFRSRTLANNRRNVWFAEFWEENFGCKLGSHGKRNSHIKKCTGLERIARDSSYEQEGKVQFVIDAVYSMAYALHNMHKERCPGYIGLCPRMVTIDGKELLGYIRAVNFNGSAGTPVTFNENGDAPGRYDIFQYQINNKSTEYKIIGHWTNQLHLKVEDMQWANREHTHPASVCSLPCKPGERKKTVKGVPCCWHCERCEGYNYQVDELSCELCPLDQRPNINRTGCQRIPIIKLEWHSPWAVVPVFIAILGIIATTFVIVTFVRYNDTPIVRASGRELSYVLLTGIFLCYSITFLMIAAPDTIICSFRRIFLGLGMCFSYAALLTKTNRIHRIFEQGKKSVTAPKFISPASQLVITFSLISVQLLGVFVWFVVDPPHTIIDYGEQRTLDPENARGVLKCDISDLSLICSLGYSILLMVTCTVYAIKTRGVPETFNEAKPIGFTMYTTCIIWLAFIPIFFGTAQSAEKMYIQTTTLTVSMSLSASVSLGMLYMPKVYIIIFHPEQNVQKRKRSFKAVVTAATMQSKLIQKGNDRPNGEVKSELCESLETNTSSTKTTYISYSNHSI
`CCOC(=O)CNC(=O)Cn1cnc2sc(C)c(S(=O)(=O)N3CCC(C)CC3)c2c1=O`: the z-score is -0.342. The figure for `Cc1ccc(C(=O)NCC(=O)N2CCN(c3ncccn3)CC2)s1` is -0.199; for `O=C(c1cccc(F)c1F)N1CCCC1` it is 0.669. Under `CCOC(=O)c1ccccc1N/C=C1\CCCC1=O` stands -0.626; under `COc1ccc(-n2c(SCCC(=O)O)nnc2-c2ccncc2)cc1`, 0.658. The figure for `CCCCNC(=O)OC1CCS(=O)(=O)C1` (configuration not stated) is 0.0952; for `CCC(C)(C)NC(=O)C(c1ccccc1F)N(C(=O)c1ccn[nH]1)c1ccccc1` (configuration not stated) it is 0.203; for `CN(C)c1ccc(NC(=O)CN2C(=O)CC(c3ccccc3)=Nc3ccccc32)cc1` it is 0.236. `COc1ccc(CCNC(=O)c2cccnc2)cc1`: the z-score stood at 0.502. Under `CN(C(=O)C1CCOC1)c1nnc(-c2cccnc2)s1` (configuration not stated) stands -0.116; under `N#Cc1nc(COc2ccccc2Cl)oc1NCc1ccc(F)cc1`, -0.0948. Under `N/C(=N\OC(=O)c1ccccc1Cl)c1ccccn1` stands -0.325; under `COc1ccc(S(=O)(=O)Nc2ccc3c(c2)OCO3)cc1C`, -0.308. Compound `CCCCNC(=O)C1CCN(Cc2ccccn2)CC1` yielded a z-score of -0.151. Under `Cc1cc2ncn(C(=O)N3CCOCC3)c2cc1C` stands 0.0803; under `COc1ccc2nc(NC(=O)C3CCN(S(=O)(=O)c4cccs4)CC3)sc2c1`, -0.128; under `CC1CCN(C(=O)CSc2nnc(Cc3cc(=O)[nH]c(=O)[nH]3)n2-c2ccc(Cl)cc2)CC1`, -0.349.

Compound `Cc1ccc(S(=O)(=O)CCc2nnc(NC(=O)c3ccccn3)s2)cc1` registered a z-score of 0.0225. Under `Clc1ccc(Nc2nc(-c3cccs3)cs2)nc1` stands -0.433.

On to `Cn1[nH]c(=O)c(Cl)c(Cl)c1=O`, for which the z-score is -0.305.

For the compound `COc1ccc(C(=O)Nc2ccccn2)cc1`, the z-score is -0.119. The figure for `CC1=NN(C(=O)c2ccc(Cn3cc([N+](=O)[O-])cn3)cc2)C(O)(C(F)(F)F)C1` (configuration not stated) is 0.0166; for `O=C(Nc1cccnc1)c1cc(-c2ccc3c(c2)OCO3)on1` it is 0.364.

Take `COCCCNC(=S)N(Cc1cccnc1)Cc1ccc(OC)c(OC)c1`: the z-score is -1.16.

On to `Cc1[nH]c2c(C)cccc2c1CCNS(=O)(=O)c1cccc([N+](=O)[O-])c1`, for which the z-score was -0.0132. The figure for `Cc1cccc(OCC(=O)O/N=C(\N)Cc2ccc(Cl)cc2)c1` is 0.608; for `O=C(NC1CC1)C1CCCN1S(=O)(=O)c1ccc2ccccc2c1` (configuration not stated) it is -0.112. Under `CCOCCCNC(=O)c1ccc(CS(=O)(=O)Cc2cccc(C)c2)o1` stands 0.789. The figure for `COc1ccc(NC(=O)c2cc(-c3ccccc3Cl)no2)cc1` is -0.224.

`CCOc1cc(/C=N/NC(=O)COc2cccc(C)c2)ccc1OC(=O)c1cccs1` displayed a z-score of -0.0875. Under `Cc1ccc(C(=O)c2ccccc2C(=O)O)s1` stands -0.296; under `COc1ccccc1NC(=O)C(=O)NNC(=O)c1ccco1`, 2.81.

Regarding `Cc1ccc(CCNC(=O)C2CC(c3ccccc3[N+](=O)[O-])=NO2)cc1` (configuration not stated), the z-score is -0.174. The figure for `O=C(NC(NC1CCS(=O)(=O)C1)C(Cl)(Cl)Cl)c1ccc(Br)cc1` (configuration not stated) is -0.137; for `O=[N+]([O-])c1cccc2ccc(/C=C/c3ccc(F)cc3)nc12` it is -0.262; for `O=c1[nH]c2c(s1)C(c1ccco1)C1C3CCC(C3)C1S2` (configuration not stated) it is -0.0669. `Cc1cccc(NC(=O)/C=C/c2cccs2)n1` had a z-score of -0.165. The figure for `CC(=O)C1=C(C)NC(SCC(=O)c2ccc(Cl)c(Cl)c2)=C(C#N)C1c1ccco1` (configuration not stated) is -0.139; for `Cc1nc2ccccc2c2c1C(=O)N(CCC1=CCCCC1)C2=O` it is 0.00608; for `CCOc1ccc(S(=O)(=O)N2CCN(C(=O)c3cc4c(s3)CCCC4)CC2)cc1` it is -0.492. The figure for `Cn1cc([N+](=O)[O-])c(C(=O)Nc2ccc(C(=O)N3CCCCC3)cc2)n1` is -0.328; for `C=CCN1C(=O)[C@]2(c3ccccc31)C1CCCC=C1C(C#N)=C(N)C2(C#N)C#N` (some centres not stated) it is 0.209; for `Cc1cc(C)c2c(c1)-c1c(ssc1=S)C(C)(C)N2C(=O)CN1C(=O)c2ccccc2C1=O` it is 0.383. Take `COc1ccc(NC(=O)CSc2nc(N)c3cc4c(nc3n2)CCCC4)c(OC)c1`: the z-score was -0.625.

In the case of `CC(C)N(C)CCOC(=O)c1ccccc1Cl`, the z-score is -0.145.

In turn, `Cc1cc(NC(=O)c2ccc3c(c2)C(=O)N(C)C3=O)no1` returned a z-score of -0.25. The figure for `COc1ccccc1C(CC(N)=O)c1ccco1` (configuration not stated) is 0.108; for `CC1CCN(CCn2c(=S)[nH]c3ncccc3c2=O)CC1` it is active: 4.47. The figure for `CCCC(C)C(=O)Nc1nc(C)c(-c2csc(Nc3cc(Cl)ccc3C)n2)s1` (configuration not stated) is -0.232; for `CC(NC(=O)c1ccc2c(c1)OCO2)C(c1cccs1)N1CCOCC1` (configuration not stated) it is -0.0844. The figure for `O=C(Nc1cccnc1)c1ccccc1O` is -0.251; for `O=C(CCN1CCN(C/C=C/c2ccccc2)CC1)Nc1ccc(Cl)cc1` it is 0.239; for `COc1ccc(OCC(=O)N2CCN(C(=O)c3cccc(F)c3)CC2)cc1` it is -0.205. `Cc1cc(Br)c2c(c1)=C(c1sc(N3CCCCCC3)nc1O)C(=O)N=2` showed a z-score of 0.07. Under `Cc1cc[n+](-c2[nH]c(=O)sc2/C=N/NC([S-])=Nc2ccccc2)cc1` stands 0.536; under `CC(=O)Nc1c(C)nn(-c2ccc(C)c(C)c2)c1C`, -0.119. Under `c1ccc(C2CC(c3ccccc3)n3c(nc4ccccc43)N2)cc1` (configuration not stated) stands -2.1. The compound `CSc1cccc(NC(=O)c2ccccc2N(C)S(C)(=O)=O)c1` yielded a z-score of -0.197. The figure for `O=C(NNC(=O)c1ccc([N+](=O)[O-])cc1Cl)c1ccncc1` is -0.103.

Compound `CCOc1ccc2c(c1)n(CO)c(=S)n2CO` gave a z-score of 0.0706.

As for `O=C(Nc1nnc(CCc2ccccc2)s1)C1CCCO1` (configuration not stated), the z-score is -0.359. Under `O=c1c2ccccc2sn1-c1ccc(S(=O)(=O)N2CCCCC2)cc1` stands -0.181. Regarding `Cc1ccc(-c2nnn(CC(=O)NCC3CC3)n2)o1`, the z-score is -0.0955. Turning to `Cc1ccccc1CS(=O)(=O)Cc1ccc(C(=O)NCc2ccco2)o1`, the z-score came out at 1.15. The figure for `COCCN(CCOC)C(=O)CC(=O)N(CCOC)CCOC` is 0.0459; for `CCOC(=O)Cc1cc(=O)n2[nH]c(C)c(C#N)c2n1` it is -0.0107; for `O=C1c2ccccc2C(=O)N1C/C=C/CN1C(=O)c2ccccc2C1=O` it is 0.0454. Under `Cc1c(CN(C)CCc2ccccc2)c(=O)n(-c2ccccc2)n1C` stands -0.04; under `Cc1ccc(-c2cc(C(=O)NCc3cnn(C)c3)c3cc(Br)ccc3n2)cc1`, -0.27. Under `O=C(Nc1ccc2c(c1)ncn2-c1ccccc1)c1ccco1` stands -0.0773. `COc1ccc(NC(=S)Nc2ccc3nccnc3c2)cc1`: the z-score was -0.171. Under `Cc1nc2[nH]c(=O)c3c(n2n1)NC1=C(C(=O)CC(C)(C)C1)C3c1ccc(F)cc1` (configuration not stated) stands -2.1.

The record behind these values is PubChem BioAssay AID488969 (Vanderbilt High Throughput Screening Facility, 2010).
